For three compounds, GI50 and TGI results are on record in PubChem BioAssay (NCI).

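Growth conditions: 96-well plates. Treatment: test compound, 48 hours, 5 concentrations. Analysis: linear interpolation between bracketing concentrations; unreached endpoints set to highest concentration. Here, GI50 denotes the concentration required for 50% inhibition of growth. TGI is the concentration that stops growth completely.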

This experiment concerns NCI-H322M lung. Kind of experiment: NCI-60 cell line screen, 48 h.

Regarding `Cc1ccc(NC2=C(Cl)C(=O)c3nc(C)ccc3C2=O)c(C)c1`, the GI50 was 2.86 µM and the TGI is 10.1 µM.
Consider `Cn1ccnc1C(=O)/C=C/c1ccc(CNC(=O)c2ccc(F)cc2)cc1`, for which the GI50 was 2.88 µM and the TGI came to 6.77 µM.
For the compound `CCN(CC)CCOc1ccc(C(=C(C)Cc2ccc(OC)cc2)c2ccc(OCCN(CC)CC)cc2)cc1`, the GI50 is 4.66 µM and the TGI turned out to be 12.9 µM.
